Experimental data: PMC11995724, “Antibiotic target discovery by integrated phenotypic and activity-based profiling of electrophilic fragments” (Cell chemical biology, 2025)
Out of some 3,200 compounds screened, about 75 (2%) showed an effect of 50% or more. This is one part of the list.

Each compound was assayed on T1, S. aureus MSSA476. Conditions: relative growth, OD600, TSB; 25 µM; inhibitor.
T1 construct: MSSA476
Set-up: species or system S. aureus MSSA476 (TSB) or V. cholerae SAD30 (LB); 384-well bacterial growth screen at 25 uM, OD600 relative to DMSO control

Compound	% of control remaining
CN(C)S(=O)(=O)c1ccc(NC(=O)CCl)cc1 [5-J11, 2-chloro-N-[4-(dimethylsulfamoyl)phenyl]acetamide]	107.468%
N#CC(=Cc1cccc(O)c1)C(=O)Nc1ccc(N2CCOCC2)cc1 [8-I14, 2-cyano-3-(3-hydroxyphenyl)-N-[4-(morpholin-4-yl)phenyl]prop-2-enamide]	91.9502%
CC(C)C(NC(=O)CCl)c1ccc2c(c1)OCCCO2 (stereo not shown) [4-N14, 2-chloro-N-[1-(3,4-dihydro-2H-1,5-benzodioxepin-7-yl)-2-methylpropyl]acetamide]	90.7099%
C=CC(=O)NCC1CCN(Cc2ccccc2)CC1C (stereo not shown) [3-G20, N-[(1-benzyl-3-methylpiperidin-4-yl)methyl]prop-2-enamide]	87.0701%
C=CC(=O)N(C)CC(=O)N1CCC(CN2CCCCC2=O)CC1 [2-F16, N-methyl-N-(2-oxo-2-{4-[(2-oxopiperidin-1-yl)methyl]piperidin-1-yl}ethyl)prop-2-enamide]	94.3429%
O=C1C=CC(=O)N1CCc1ccc(F)cc1 [10-C21, 1-[2-(4-fluorophenyl)ethyl]-2,5-dihydro-1H-pyrrole-2,5-dione]	70.9375%
CC(Cl)C(=O)N1CCc2c(nnn2C)C1 (stereo not shown) [7-G22, 2-chloro-1-{1-methyl-1H,4H,5H,6H,7H-[1,2,3]triazolo[4,5-c]pyridin-5-yl}propan-1-one]	75.9812%
O=C(CCl)Nc1ccc(Cl)cc1F [4-E03, 2-chloro-N-(4-chloro-2-fluorophenyl)acetamide]	75.0834%
O=C(CCl)N1CCC(C2CCCN(C(=O)C(F)(F)F)C2)CC1 (stereo not shown) [5-E20, 1-[1'-(2-chloroacetyl)-[3,4'-bipiperidin]-1-yl]-2,2,2-trifluoroethan-1-one]	105.647%
CSc1ccc(C=C(C#N)C(=O)Nc2cccc(Cl)c2C)cc1 [8-N11, N-(3-chloro-2-methylphenyl)-2-cyano-3-[4-(methylsulfanyl)phenyl]prop-2-enamide]	130.788%
CC1CC(C)CN(S(=O)(=O)c2ccc(NC(=O)CCl)cc2)C1 (stereo not shown) [4-K16, 2-chloro-N-{4-[(3,5-dimethylpiperidin-1-yl)sulfonyl]phenyl}acetamide]	97.9514%
CC(c1ccc(C(F)(F)F)c(Cl)c1)N(C)C(=O)CCl (stereo not shown) [7-F14, 2-chloro-N-{1-[3-chloro-4-(trifluoromethyl)phenyl]ethyl}-N-methylacetamide]	6.593%
O=C(CCl)N(Cc1ccccc1)Cc1ccco1 [5-F22, N-benzyl-2-chloro-N-[(furan-2-yl)methyl]acetamide]	112.204%
C=CC(=O)N(Cc1cn(C)nc1CC)C1CCCCCC1 [1-H09, N-cycloheptyl-N-[(3-ethyl-1-methyl-1H-pyrazol-4-yl)methyl]prop-2-enamide]	108.659%
C=CC(=O)NC1CC(C)Cc2cc(OC)ccc21 (stereo not shown) [3-L17, N-(6-methoxy-3-methyl-1,2,3,4-tetrahydronaphthalen-1-yl)prop-2-enamide]	79.4079%
CN(C(=O)c1ccccc1)C1CC2CCC(C1)N2C(=O)CCl (stereo not shown) [5-J03, N-[8-(2-chloroacetyl)-8-azabicyclo[3.2.1]octan-3-yl]-N-methylbenzamide]	104.189%
N#CC(C(=O)CCl)c1nncn1-c1ccccc1 (stereo not shown) [10-L14, 4-chloro-3-oxo-2-(4-phenyl-4H-1,2,4-triazol-3-yl)butanenitrile]	116.25%
CC(C)C(=O)Nc1ccc(C(=O)CCl)cc1 [10-D04, N-[4-(2-chloroacetyl)phenyl]-2-methylpropanamide]	4.6875%
C=CC(=O)NC1(C(N)=O)Cc2ccccc2C1 [2-D15, 2-(prop-2-enamido)-2,3-dihydro-1H-indene-2-carboxamide]	107.224%
C=CC(=O)N1CCC(C(=O)N(C)Cc2ccon2)CC1 [2-I14, N-methyl-N-[(1,2-oxazol-3-yl)methyl]-1-(prop-2-enoyl)piperidine-4-carboxamide]	113.142%
C=CCNC(=O)C(C#N)=Cc1ccccc1OC [9-H05, 2-cyano-3-(2-methoxyphenyl)-N-(prop-2-en-1-yl)prop-2-enamide]	96.1798%
Cc1cc(C)n(C2CN(C(=O)C(C)Cl)C2)n1 (stereo not shown) [7-F15, 2-chloro-1-[3-(3,5-dimethyl-1H-pyrazol-1-yl)azetidin-1-yl]propan-1-one]	104.239%
C=CC(=O)Nc1c(OC)nc(Cl)nc1OC [1-B14, N-(2-chloro-4,6-dimethoxypyrimidin-5-yl)prop-2-enamide]	133.978%

Compound	% of control remaining
Cc1ccc(F)cc1NC(=O)CCl [4-O03, 2-chloro-N-(5-fluoro-2-methylphenyl)acetamide]	84.2306%
CC(Cl)C(=O)NC(C)c1ccns1 (stereo not shown) [6-P12, 2-chloro-N-[1-(1,2-thiazol-5-yl)ethyl]propanamide]	84.3415%
O=C(CCl)Nc1cc(Cl)c(Cl)cc1Cl [4-B06, 2-chloro-N-(2,4,5-trichlorophenyl)acetamide]	85.7551%
COc1ccc(C(=O)CCl)cc1Cl [10-D10, 2-chloro-1-(3-chloro-4-methoxyphenyl)ethan-1-one]	-0.3125%
Cl.O=C(CCl)Nc1cccc(CN2CCSCC2)c1 [5-J14, 2-chloro-N-{3-[(thiomorpholin-4-yl)methyl]phenyl}acetamide hydrochloride]	89.2532%
O=C(CCl)N[C@H]1CCCc2ccccc21 [6-I21, 2-chloro-N-[(1S)-1,2,3,4-tetrahydronaphthalen-1-yl]acetamide]	83.3171%
C=CC(=O)N(Cc1ccc(F)c(C)c1)CC1(O)CCSCC1 [2-E13, N-[(4-fluoro-3-methylphenyl)methyl]-N-[(4-hydroxythian-4-yl)methyl]prop-2-enamide]	129.504%
CN(CC(=O)Nc1c(Cl)cccc1Cl)C(=O)CCl [6-M05, 2-chloro-N-{[(2,6-dichlorophenyl)carbamoyl]methyl}-N-methylacetamide]	97.3171%
C=CC(=O)N1CCC(C(=O)N(C)C(C)CC(N)=O)CC1 (stereo not shown) [2-K20, 3-{N-methyl-1-[1-(prop-2-enoyl)piperidin-4-yl]formamido}butanamide]	98.8686%
CC(C)n1ccnc1C(=O)CCl [10-H10, 2-chloro-1-[1-(propan-2-yl)-1H-imidazol-2-yl]ethan-1-one]	2.1875%
C=CC(=O)NCc1ccccc1S(=O)(=O)NC(C)(C)C [1-J03, N-{[2-(tert-butylsulfamoyl)phenyl]methyl}prop-2-enamide]	111.121%
CC(Cl)C(=O)NCC(C)c1nncn1C (stereo not shown) [7-A07, 2-chloro-N-[2-(4-methyl-4H-1,2,4-triazol-3-yl)propyl]propanamide]	92.3077%
Cc1ccsc1C=C(C#N)C(=O)Nc1c(Cl)cccc1Cl [8-D22, 2-cyano-N-(2,6-dichlorophenyl)-3-(3-methylthiophen-2-yl)prop-2-enamide]	73.6929%
C=CC(=O)NCCc1csc(-c2ccccc2)n1 [1-A13, N-[2-(2-phenyl-1,3-thiazol-4-yl)ethyl]prop-2-enamide]	105.495%
Cc1cc(C)c(NC(=O)C(C#N)=Cc2ccc(C)o2)c(C)c1 [9-I17, 2-cyano-3-(5-methylfuran-2-yl)-N-(2,4,6-trimethylphenyl)prop-2-enamide]	100.974%
O=C1C=CC(=O)N1CCCCO [10-K07, 1-(4-hydroxybutyl)-2,5-dihydro-1H-pyrrole-2,5-dione]	123.75%
C=CC(=O)N(Cc1cn2ccccc2n1)C1CC1 [3-J21, N-cyclopropyl-N-({imidazo[1,2-a]pyridin-2-yl}methyl)prop-2-enamide]	100.305%
COc1cc(C=C(C#N)C(=O)NC2CC2)cc(OC)c1O [9-O19, 2-cyano-N-cyclopropyl-3-(4-hydroxy-3,5-dimethoxyphenyl)prop-2-enamide]	119.85%
O=CN1CCc2cc(C(=O)CCl)ccc21 [10-K20, 5-(2-chloroacetyl)-2,3-dihydro-1H-indole-1-carbaldehyde]	102.813%
Cc1cc(C(=O)CCl)c(C)n1-c1ccc(Cl)cc1 [10-H18, 2-chloro-1-[1-(4-chlorophenyl)-2,5-dimethyl-1H-pyrrol-3-yl]ethan-1-one]	-0.625%
CC(=O)N1CCC(NC(=O)C(C)Cl)c2ccc(F)cc2C1 (stereo not shown) [7-I16, N-(2-acetyl-8-fluoro-2,3,4,5-tetrahydro-1H-2-benzazepin-5-yl)-2-chloropropanamide]	108.006%
O=C(CCl)NCC(=O)N1CCC(Cc2ccccc2)CC1 [6-F04, N-[2-(4-benzylpiperidin-1-yl)-2-oxoethyl]-2-chloroacetamide]	90.4878%
O=C(CCl)N(CC1=CCCOC1)Cc1ccccc1 [7-J20, N-benzyl-2-chloro-N-[(5,6-dihydro-2H-pyran-3-yl)methyl]acetamide]	108.948%
